# Assay results: the supplement of paper PMC11417369
# ± gives the standard deviation of the averaged measurements. The list shows a part of the results.
# System: PfAP2-I AP2 domain 3 (GST-tagged)
# Assay: gcPBM binding intensity (ln(normalized median fluorescence intensity)); higher = stronger DNA binding
# Procedure, shortened: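 DNA-binding domains from P. falciparum, fused to GST and produced in E. coli, were put on an Agilent 4 × 180k double-stranded probe array for 1 h in 1× PBS holding 1% milk, 0.2 mg/ml BSA, 0.5% salmon testes DNA and 0.03% Triton X-100. Probes were primer-extended, 36 bp long and drawn from intergenic genomic regions, with negative controls included. After Alexa488 anti-GST antibody detection and a 488 nm scan, binding intensity was set as the highest Masliner-normalised natural-log median intensity across replicate spots of either probe orientation.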
row,Sequence,gcPBM binding intensity (ln)
1,TCTTTTTAAATATATACACACCGTGTCTACAGATAC [CACACA_site5784],7.87 ± 0.5
2,ACATGATGTCATAAATGTACGCACACATACATAAAC [XGTACX_site1198],8.34 ± 0.33
3,GAACATTTCACACAAAAAAAAAAAAATATATATATA [TGCATGCA_negctrl_site518],9.26 ± 0.028
4,TACTAATATAATAAAAGTACTTAAATAAATATATGT [XGTACX_site2220],7.79 ± 0.43
5,GTATAAAAGTTATATACACACAACAGAATTACATAT [CACACA_site6212],7.82 ± 0.57
6,TTTGAAAAAAATTAATGTACATTTGAAATGACATAT [XGTACX_site3902],7.67 ± 0.33
7,ATACCTTCTTTTATGTTTAATTAATATACTTTTTAT [CACACA_negctrl_site1557],8.39 ± 0.57
8,AAAAAAAAAAAACACACACACACAAATATATAAAAA [CACACA_site1171],7.85 ± 0.28
9,AATACATACATACATACACACATATAAATATATTAT [CACACA_site7650],7.9 ± 0.67
10,TTTGCCCAAAAAGGTACACACCACAATGTACATAAA [CACACA_site4599],8.185 ± 0.078
11,TCATATATGGGTAGTATACACACTGTATATTTAGGA [CACACA_site2844],7.79 ± 0.7
12,TTTTATTTAAATACACGTACATAATGTATATATATA [XGTACX_site7160],8.71 ± 0.51
13,AGATAAAATATATATGCACACACATATATATTTCAT [CACACA_site9183],9.255 ± 0.007
14,ATTCTATATAAATATACACACATATATAAAATACAT [CACACA_site2293],7.8 ± 0.57
15,TTAATAATTAATATATGTACTGATAAATAACATATA [XGTACX_site3966],7.54 ± 0.19
16,TAATTATTTAAAAAGAGTACATTTTTTTTTTTTTTT [XGTACX_site1060],8.22 ± 0.49
17,TGTTTGTAATTATGTATGCACTTTTTTGTATGTGTG [GTGCAC_site9668],9.575 ± 0.035
18,ACATATCTATCGTTTTTAATTGTATATTATTATAAC [TGCATGCA_negctrl_site144],7.58 ± 0.65
19,ATATTCTTGTTTAATACACACTGTAGTATTATATAT [CACACA_site4400],8.07 ± 0.6
20,AGAAAAAAACAACATGCACACGCACCCACAAAAAAA [CACACA_site7908],9.06 ± 0.18
21,TCCCACTGTTATATTGAAAAAAAAAAAAAAAAAAAA [TGCATGCA_negctrl_site288],8.05 ± 0.44
22,TCTTGTATATGTTAAAGTACACAACAATATATATAT [XGTACX_site6814],9.1 ± 0.17
23,AATTATATGCTTAATACGCACACGGGAAAAAAAAAA [CACACA_site1376],8.82 ± 0.59

row,Sequence,gcPBM binding intensity (ln)
1,TTTTCAAAAATATACACACACATAAATATCTGTATA [CACACA_site4586],7.75 ± 0.52
2,TAAATAAAAAAAAATCGTACATATATTTTATATATG [XGTACX_site3293],7.39 ± 0.21
3,TCGTAATAATAGTTGAGTACGCACTAATATGTCAAT [XGTACX_site643],8.59 ± 0.27
4,TATTTACATTTTAGTAGTACATATATGTATATATAT [XGTACX_site6839],8.32 ± 0.6
5,TTTATTTGTAACGGTTGTACTTGTATATCATTATGA [XGTACX_site4281],7.72 ± 0.4
6,TAGTGATATAATTATGTGCACTTAATACAGGTCGAT,10.9 ± 0.3
7,CTTAAATTTAAGTTCACACATATTGGTCATTTATAT [CACACA_site5006],7.71 ± 0.51
8,CACTAAAATAGACACACACACACACGGATATAAATA [CACACA_site7873],7.99 ± 0.32
9,TAGATACATACACGCACACACATATATATATATATA [CACACA_site12],9.41 ± 0.56
10,CCACATTAAAAAAAAACACACATATATTATAGATAT [CACACA_site6662],7.57 ± 0.52
11,AATGTACGTTTTATAACACACACACTAATAAAAAAA [CACACA_site9286],8.23 ± 0.36
12,ATCTTCAAAAATATTAGTACACATGTATCATGAATT [XGTACX_site3872],8.245 ± 0.064
13,TACTAAGAATTAATATAACAAAATAAAAAAAAAAAA [XGTACX_negctrl_site346],7.93 ± 0.59
14,ATACAGATATATAATACACACATAAATGTAACATTT [CACACA_site5864],7.86 ± 0.47
15,TGTATGTATAAAAACGCATGTATGTATTTTACAATA [TGCATGCA_site767],7.57 ± 0.61
16,ATGTATATATATATATGTACTAATTAGTAGTTTACG [XGTACX_site6272],7.97 ± 0.26
17,AAAATTAAAAATAACACACACATATATATATTTATA [CACACA_site2776],7.66 ± 0.34
18,GATATTTTTTTCGAAAGTACAAAAAAAAATATTTCC [XGTACX_site4389],8.06 ± 0.22
19,ATATATATACCAAGTAGTACATTCTACAACTAATGT [XGTACX_site8653],8.24 ± 0.57
20,AAAATAAAAATACACATTTTTTTTTTTTTTTTTTTT [TGCATGCA_negctrl_site515],9.37 ± 0.15
21,TTTTTTTTTGTTTACACACCCAAATCACATACATAT [CACACA_site4052],8.31 ± 0.42
22,TTTTTTTTTTTTTTTGCACACTTGATTTGAGCTTAT [CACACA_site4042],9.62 ± 0.38
23,AAAAAAAACAGACACACACACATAAATATATATAAA [CACACA_site148],7.75 ± 0.54

row,Sequence,gcPBM binding intensity (ln)
1,TAAATAATTTATAAGTGTACTATTATTGCACGAATA [XGTACX_site7715],11.1 ± 0.57
2,ATGATTTTTTCTGTATGTACATAAAAATAAAATTCT [XGTACX_site5698],7.84 ± 0.28
3,CATTAGGTCTTTTGTACATGCAAGTGTGTGCGTAAA [TGCATGCA_site255],9.44 ± 0.51
4,TTGTTTATTTTTTATTACTATAAAGATGTTATATAT [CACACA_negctrl_site1506],7.71 ± 0.54
5,ATAATATCTTTATGTGTGCACATATATATATATATA,10.15 ± 0.035
6,TATATAAATATATATGTACACACATATACATGTTGA [CACACA_site9022],7.67 ± 0.26
7,AAAATTTAATATAATGCACACATAAAAAAAAAAAAT [CACACA_site8425],11.1 ± 1
8,TATAATATAATATATGCACACAAATATGTATATATG [CACACA_site8664],8.86 ± 0.085
9,AACTATATATAACTAGTGCAAAGACAATATTTTAAA,9.355 ± 0.092
10,TTCTTTAAAATAAATTGTACTAACATATATATATAT [XGTACX_site6045],9.34 ± 0.8
11,AAGAATAATAACAAATGTACTTATATAAAGTATTAT [XGTACX_site2336],7.7 ± 0.6
12,TAATTAAATATTTTCCTACAATTAATAAGAAAAGGA [XGTACX_negctrl_site565],7.48 ± 0.4
13,TTTTCCTTTTTGGAATGTACACATATATATTAAATG [XGTACX_site4700],7.53 ± 0.55
14,AAATATAATATATGCACACATACATACATATATATA [CACACA_site104],9.41 ± 0.3
15,TATTAAGAAGAAAATTCACACATTTGTACCTCTCTT [CACACA_site4822],7.64 ± 0.34
16,CAGCTCTTAAAAATTACACACATATACGCATATATA [CACACA_site3267],7.62 ± 0.58
17,TATAAATAGATATATACACACATGAAAATAAATAAA [CACACA_site7228],7.63 ± 0.54
18,TTACAAAAATGTGGTTGTACACAAACAAAAAAAATA [XGTACX_site8506],8.35 ± 0.29
19,GAAAATAGCTAAAATACACACAATTAAAAGTTATTA [CACACA_site7614],7.43 ± 0.27
20,TTTTTTTTTTTTTGGTTCACACTGAAAAGAGAGATA [GTGCAC_negctrl_site439],8.1 ± 0.82
21,TTTCAAACTGTTCTCACACACGAAATTAGAAATGAA [CACACA_site4509],7.88 ± 0.27
22,AAAACAAAATAGGGAACACACACATGTCAATATATA [CACACA_site8834],7.75 ± 0.61
23,TTTTGTTATTTTGAAGTGCACTTTCCACTTAATATA,10.8 ± 0.13

row,Sequence,gcPBM binding intensity (ln)
1,CAATCATGGTTTTACACACACATGCATGTGAAAATT [CACACA_site4870],7.87 ± 0.53
2,TCATGTTTTACAAAAACACACAAATGAATATAAACA [CACACA_site4775],7.92 ± 0.42
3,TCGAATTTGGAAAGAAGTACATGAAGCCAACATATG [XGTACX_site5222],7.88 ± 0.48
4,AATAAATAAAAATTATGTACATATATAAAAAATACA [XGTACX_site8581],7.95 ± 0.48
5,TATATACATAGACACCCACACACAAAAAAAAAAAAA [CACACA_site8186],8.01 ± 0.72
6,AAAACATACCTATATACACACATATAAATATAAATA [CACACA_site6956],7.81 ± 0.38
7,TTTGATATAGAAAGAGCATGCAAGTTAGATAAAATA [TGCATGCA_site470],7.94 ± 0.71
8,AATAAATTATTATGTACACACATAATAGTATATATA [CACACA_site1820],7.71 ± 0.33
9,TATATATTAATATACACACACACATATATATATATA [CACACA_site1608],9.22 ± 0.38
10,AACATGTTAAAATAAACACACAGCTAAGGTTTTTTT [CACACA_site157],7.4 ± 0.69
11,AAAAAAAAAAAAAAATGTACAAATAGTAGTTACAGA [XGTACX_site2531],8.11 ± 0.4
12,ATAATATATGTATATCCACACACATATATATATATA [CACACA_site8471],9.17 ± 0.55
13,ATTTAAGATTTAATCACACACATATATATTATATAC [CACACA_site2907],7.64 ± 0.54
14,GCAAATGTGAAAACGTGTACACATTTTATTTAATTT [XGTACX_site8000],7.91 ± 0.42
15,TATTTGTAAATCGATACACACATATATATTAATATA [CACACA_site196],7.63 ± 0.25
16,AAATGTAGATATTATCGTACACATATATTTATATAT [XGTACX_site6326],7.71 ± 0.4
17,TAAAAAATAAATATATGTACGCAATAAATGTGTTAA [XGTACX_site4043],7.83 ± 0.11
18,ACACATATGCATATATGTACATAATATATTAAACTT [XGTACX_site5975],7.81 ± 0.45
19,AAAAAAAAAAGACACACACACACACTAATACATACA [CACACA_site6473],7.88 ± 0.26
20,ATGTTTTACAAAAACACACAAATGAATATAAACATA [CACACA_site6667],7.58 ± 0.66
